Measured values from article PMC3276683 (Bioorganic & medicinal chemistry, 2012).
Values after ≈ are worked out from the molar mass of the structure shown. Where two headings read alike, the source gives them in different places.

Experiments:
[1] = tested on: Mycobacterium tuberculosis H37Rv; conditions: M. tuberculosis H37Rv; compounds isolated from Piper sanctum; cited from earlier work
[2] = tested on: Mycobacterium tuberculosis H37Rv

SMILES	MIC [1] [µg/mL]	MIC [2] [µg/mL]
COc1cc(CCc2ccc3c(c2)OCO3)oc(=O)c1 [compound 2, 6-[2-(1,3-Benzodioxo-5-yl)ethyl]-4-methoxy-2H-pyran-2-one]	32 (≈ 117 µM)	
COc1cc(/C=C/c2ccccc2)oc(=O)c1 [compound 4, 4-Methoxy-6-styryl-2H-pyran-2-one]	4 (≈ 17.5 µM)	
NNC(=O)c1ccncc1 [isoniazid]		0.03 (≈ 0.219 µM)
